Source: PubChem BioAssay AID1030 (National Center for Advancing Translational Sciences (NCATS), 2008)
Screen size: about 220,000 compounds; about 16,000 (7.3%) were called active. Inconclusive results, whose numbers are uncertain, are shown with a selection of clear calls. The call rests on the fitted dose curve; in most records, active means well fitted inhibition curve with a large enough effect (not every such curve was filed as active); inconclusive means small, poorly fitted or top-dose-only effect, or another doubt; inactive means no such curve, though single readings can be large or run the other way. No potency is given beside an inconclusive call; the fits are too rough.

Molecular target: Aldehyde dehydrogenase 1A1 (Homo sapiens) (UniProt P00352)
Experiment: qHTS Assay for Inhibitors of Aldehyde Dehydrogenase 1 (ALDH1A1)
Conditions: Purified ALDH1A1, NADH fluorescence, propionaldehyde substrate; series mostly up to 75.3 µM
Potency means the concentration at half of the fitted maximal effect; tags describe the fitted curve by direction and shape.

Chain of UniProt P00352 (P00352 whole entry, looked up): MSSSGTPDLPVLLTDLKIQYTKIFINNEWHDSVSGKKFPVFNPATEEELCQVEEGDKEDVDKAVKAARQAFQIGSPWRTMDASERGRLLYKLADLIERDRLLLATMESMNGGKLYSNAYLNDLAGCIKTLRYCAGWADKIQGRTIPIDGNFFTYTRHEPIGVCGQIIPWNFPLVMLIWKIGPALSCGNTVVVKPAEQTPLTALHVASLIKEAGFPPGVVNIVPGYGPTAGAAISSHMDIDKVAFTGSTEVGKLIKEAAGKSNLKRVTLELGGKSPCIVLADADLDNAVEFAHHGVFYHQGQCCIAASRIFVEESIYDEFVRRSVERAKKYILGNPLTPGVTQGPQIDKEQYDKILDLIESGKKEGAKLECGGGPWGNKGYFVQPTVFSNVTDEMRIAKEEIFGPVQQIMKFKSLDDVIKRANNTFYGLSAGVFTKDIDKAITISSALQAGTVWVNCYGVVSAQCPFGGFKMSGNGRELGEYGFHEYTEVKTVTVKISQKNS

SMILES | Potency
CC(C)Oc1ccc(/C=N/NC(=O)c2ccc(N(Cc3ccccc3)S(C)(=O)=O)cc2)cc1 | inconclusive [inhibitor, single point]
Cc1cc(C)c2c(NC(=O)C3CC3)nn(C)c2n1 | inconclusive [inhibitor, partial curve]
CC(=O)c1cccc(NC(=S)NC(=O)c2ccccc2)c1 | inconclusive [inhibitor, single point]
CCC(C)NC(=O)COC(=O)c1oc2ccccc2c1CSc1ccc(Cl)cc1 (stereo not given) | inactive
COc1ccc(N(C)S(=O)(=O)c2cccc(C(=O)Nc3nnc(C4CC4)s3)c2)cc1 | inconclusive [inhibitor, single point]
COc1ccccc1N1CCN(S(=O)(=O)c2ccc(-n3cnnn3)c(C)c2)CC1 | inconclusive [inhibitor, single point]
COC(=O)[C@@H]1C[C@@]2(O)[C@H](O)[C@H](O)[C@H](O)C[C@H]2N1Cc1ccc(N2CCOCC2)cc1 | inconclusive [inhibitor, single point]
O=C(Cn1ncc(Cl)c(Cl)c1=O)N1CCc2ccccc21 | active: 10 µM
O=C1/C(=N\S(=O)(=O)c2cccs2)C([n+]2ccc(CCCc3ccccc3)cc2)=C([O-])c2ccccc21 | inconclusive [inhibitor, partial curve]
Cc1ccc(S(=O)(=O)N2Cc3ccccc3CC2C(=O)Nc2cc(C)on2)cc1 (stereo not given) | inconclusive [inhibitor, single point]
Cc1ccc2c(C(=O)CN3CCCC3)c(C)[nH]c2c1 | inactive
COC(=O)CCC(=O)N1CCc2cc(S(=O)(=O)N3CCN(c4ccccc4Cl)CC3)ccc21 | inconclusive [inhibitor, partial curve]
COc1ccc(OC)c(-c2cc(C3CCN(c4ncccc4[N+](=O)[O-])CC3)[nH]n2)c1 | inconclusive [inhibitor, partial curve]
CSc1nc2ccc3nc(NC(=O)c4ccccc4)sc3c2s1 | inconclusive [inhibitor, partial curve]
O=C(NCc1cccnc1)C1CCC(CNS(=O)(=O)c2ccc(Cl)cc2)CC1 (stereo not given) | inconclusive [inhibitor, partial curve]
CCn1nnnc1SCC(=O)Nc1nc(-c2cccs2)cs1 | active: 3.16 µM
CC(C)OC(=O)CC(=O)CSc1nc2c(cc1C#N)CCCCC2 | inconclusive [inhibitor, partial curve]
COc1ccc2[nH]c(=O)c(CN(Cc3cccs3)C(=S)Nc3ccccc3)cc2c1 | inconclusive [inhibitor, single point]
CNC(=O)c1sc(=S)n(-c2ccc(OC)cc2)c1N | inactive
CCN(CC)S(=O)(=O)c1cccc(NC(=O)CSc2nnc(N)s2)c1 | inconclusive [inhibitor, single point]
CCC(C)NC(=O)CSc1nnc(-c2cc(-c3cccs3)nc3ccccc23)o1 (stereo not given) | inconclusive [inhibitor, partial curve]
C=CC(C)(C)c1c2c(c(O)c3c(=O)c4ccc(O)c(O)c4oc13)C=CC(C)(C)O2 | inactive
O=C(CN(Cc1ccco1)C(=O)CNS(=O)(=O)c1ccccc1)NCc1ccc(F)cc1 | inconclusive [inhibitor, partial curve]

SMILES | Potency
COc1ccc(CNC(=O)CS(=O)Cc2nc(-c3ccc(C)cc3)oc2C)cc1 (stereo not given) | inconclusive [inhibitor, partial curve]
Cc1ccnc(SCC(=O)n2c3c(c4ccccc42)CC(C)CC3)n1 (stereo not given) | inconclusive [inhibitor, single point]
CCn1c(Cc2cccc3ccccc23)nnc1SCC(=O)Nc1nccs1 | inactive
COc1ccc(C(=O)/C(=C/N(C)C)S(=O)(=O)c2ccccc2)cc1 | inconclusive [inhibitor, single point]
CCCCNC(=O)CC1Nc2ccccc2NC1=O (stereo not given) | inconclusive [inhibitor, partial curve]
O=C(CNS(=O)(=O)c1ccc(Br)s1)NC1CCCc2ccccc21 (stereo not given) | inconclusive [inhibitor, single point]
Cc1occc1-c1nnc(SCC(=O)NC(=O)NC(C)C)n1N | inconclusive [inhibitor, single point]
CCN1CCN(CCOc2cccc(Oc3ccccc3)c2)CC1 | inconclusive [inhibitor, single point]
O=C(Oc1ccc2ccccc2c1Cl)N1CCCC1 | inactive
CCOC(=O)C(NCCc1ccccc1F)(NC(C)=O)C(F)(F)F (stereo not given) | inactive
CC(C)Oc1ccc(NC(=O)C2CCCNC2=O)cc1 (stereo not given) | inactive
CC1(C(=O)NNC(=O)c2ccc(=O)oc2)CC1Br (stereo not given) | inconclusive [inhibitor, partial curve]
Clc1nssc1=Nc1ccccc1 | active: 1.58 µM
Cc1ccc2cc3cc(C(=O)N4CCCCCC4)oc3nc2c1 | inconclusive [inhibitor, partial curve]
COc1cc(CNC2CCCCC2OC)cc(OC)c1OC (stereo not given) | inconclusive [inhibitor, partial curve]
CCOC(=O)c1c(N)sc(C(=O)OC)c1C | inconclusive [inhibitor, single point]
CCC(=O)Nc1c(C)cc(C)cc1Cl | inactive
Cc1ccc(S(=O)(=O)NC2CCCc3ccccc32)cc1C (stereo not given) | active: 10 µM
CCOC(=O)c1nnn(CC(=O)N2N=C(c3cccc4ccccc34)CC2c2ccccc2)c1C(=O)OCC (stereo not given) | inconclusive [inhibitor, single point]
CC1(C)Cc2cccc(OCC(=O)NC3CC3)c2O1 | inconclusive [inhibitor, full curve]
O=C(O)CCSc1ccccn1 | inconclusive [inhibitor, single point]
COc1ccc(NC(=O)N2CCC(Cc3ccccc3)CC2)cc1 | inactive
